Results from PubChem BioAssay AID360 (National Center for Advancing Translational Sciences (NCATS), 2006).
In all, about 48,000 compounds went through this assay and about 550 (1.1%) were called active. Inconclusive results (about 4%) are left out. Rule as the data show it: active = potency below about 15 µM; inconclusive = mostly about 16 µM to 33 µM; inactive = weaker than that. The list shows a part of the results.

target: Lysosomal acid glucosylceramidase (Homo sapiens) (UniProt P04062); experiment: Glucocerebrosidase; conditions: purified enzyme, resorufin glucoside fluorescence (screen aimed at inhibitors), 20 min;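 also: the screen sought inhibitors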
Chain of UniProt P04062 (P04062 whole entry, looked up): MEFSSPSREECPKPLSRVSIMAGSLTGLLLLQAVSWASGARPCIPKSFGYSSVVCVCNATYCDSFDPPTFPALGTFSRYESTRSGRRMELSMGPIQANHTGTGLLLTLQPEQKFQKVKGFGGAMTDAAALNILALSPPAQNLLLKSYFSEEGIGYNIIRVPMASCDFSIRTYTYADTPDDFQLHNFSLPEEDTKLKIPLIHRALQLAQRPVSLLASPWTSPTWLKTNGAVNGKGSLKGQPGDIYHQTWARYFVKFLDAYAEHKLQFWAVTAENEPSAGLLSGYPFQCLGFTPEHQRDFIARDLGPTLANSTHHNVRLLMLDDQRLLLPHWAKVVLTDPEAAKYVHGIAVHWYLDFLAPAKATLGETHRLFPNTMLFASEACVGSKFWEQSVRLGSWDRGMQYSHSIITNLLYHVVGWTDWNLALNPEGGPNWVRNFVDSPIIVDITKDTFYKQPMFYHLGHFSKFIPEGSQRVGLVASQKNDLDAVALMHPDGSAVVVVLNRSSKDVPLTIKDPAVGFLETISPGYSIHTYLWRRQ
Text: NCGC Assay Overview: Beta-glucocerebrosidase catalyzes the hydrolysis of beta-glucocerebroside to glucose and ceramide. The inherited deficiency of beta-glucocerebrosidase results in Gaucher disease, which is characterized by a wide variety of symptoms including hepatosplenomegaly, anemia, thrombocytopenia, bony lesions and bone marrow infiltration with characteristic storage cells, known as Gaucher cells. There are also forms of the disorder affecting the central nervous system. Patients with the same genotypes can manifest with diverse clinical presentations and it is believed that improper folding and trafficking of beta-glucocerbrosidase may contribute to the phenotypes observed. Low molecular weight molecules, acting as chaperones, may potentially restore trafficking of misfolded beta-glucocerebrosidase from the endoplasmic reticulum to the lysosomes, thereby enhancing functional lysosomal beta-glucocerebrosidase activity. Using normal beta-glucocerebrosidase, an assay was developed to screen for small molecule inhibitors that could potentially act as molecular chaperones on the mutant forms [developed with NIH investigator Dr. Ellen Sidransky's laboratory]. Two pro-fluorescent substrates were chosen for two screens against a small molecule library. One beta-glucocerebrosidase assay used Resorufin beta-D-Glucopyranoside (Marker Gene Technology Inc.), generating a red fluorescent product. The second assay used Fluorescein di-beta-D-Glucopyranoside, generating a blue fluorescent product. […] The IC50 values of Conduritol B Epoxide, a known glucocerebrosidase inhibitor, were determined to be 87.5 uM and 117 uM, respectively. The use of two difference pro-fluorescent substrates in the screens helped to eliminate false positives. All compounds were screened in a titration series resulting in AC50s (e.g., IC50s or EC50s).
NCGC Assay Protocol Summary: Both enzyme and substrate were diluted in buffer composed of 50mM citric acid/KH2PO4, 10mM sodium taurocholate and 0.01% tween-20 at pH 5.9. The final concentration of the enzyme was 0.2 nM in both assays. The compound library was titrated in 7 to 15 concentrations for the primary screens with a final concentration ranging from 0.6 nM to 50 uM. This particular assay protocol is for the "red" substrate, and it was performed in 1536-well plate format as follows: Red fluorescence substrate assay: 2 uL enzyme 23 nL compound 1 uL substrate (final concentration of 30 uM) Incubate at room temperature (RT) for 20 minutes Read the plate in Viewlux plate reader (Ex=548(7) and Em=600(10)).
Potency is read from the fitted curve at half-maximal effect.

Row | SMILES | Potency
1 | COc1ccc(N2CCN(C(CNC(=O)Oc3ccccc3)c3cccnc3)CC2)cc1 (stereo unspecified) | inactive: > 76.9 µM
2 | Cn1c(O)c(/C=N/c2ccccn2)c(=O)n(C)c1=O | inactive: > 76.9 µM
3 | CCN(CC)CCCN=C(C)c1c(O)n(-c2ccc(C)cc2)c(=O)[nH]c1=O | inactive: > 76.9 µM
4 | Cc1cnn(C2CCN(C)CC2)c1N | inactive: > 76.9 µM
5 | COc1ccc(Cn2c(N)c(C(=O)NCc3ccco3)c3nc4ccccc4nc32)cc1 | inactive: > 76.9 µM
6 | CC(C)CCNC(=O)c1c(N)n(CC2CCCO2)c2nc3ccccc3nc12 (stereo unspecified) | inactive: > 76.9 µM
7 | Clc1ccc2c(N3CCNCC3)ccnc2c1 | inactive: > 76.9 µM
8 | Cc1ccc2c(c1)C(c1ccccc1)NCC(=O)N2 (stereo unspecified) | inactive: > 76.9 µM
9 | CCOC(=O)C1=C(C)OC(N)=C(C(=O)OCC)C12C(=O)Nc1ccc(Br)cc12 (stereo unspecified) | inactive: > 76.9 µM
10 | O=c1[nH]c(=O)n(-c2ccc(F)cc2)c(O)c1C=Nc1ccccc1N1CCCC1 | inactive: > 76.9 µM
11 | COc1ccccc1N1CCN(Cc2cccc(OC)c2O)CC1 | inactive: > 76.9 µM
12 | CC(c1ccccc1)n1cncc1C(=O)N1CCCC1=O (stereo unspecified) | inactive: > 76.9 µM
13 | Nc1c(C(=O)NCCN2CCOCC2)c2nc3ccccc3nc2n1Cc1ccco1 | inactive: > 76.9 µM
14 | CNC(=O)ON(C(=O)NC)C1N(C)C(=S)SC1(C)C (stereo unspecified) | inactive: > 76.9 µM
15 | CC(=NCCCO)c1c(O)n(Cc2ccccc2)c(=O)[nH]c1=O | inactive: > 76.9 µM
16 | COc1ccc(P2(=O)Nc3ccccc3N2)cc1 | inactive: > 76.9 µM
17 | Cc1ccc2nc(-c3ccncc3)cc(C(=O)N3CCC4(CC3)OCCO4)c2c1 | inactive: > 76.9 µM
18 | CC(=O)c1c(C)n(CC2CCCO2)c2ccc(O)cc12 (stereo unspecified) | inactive: > 76.9 µM
19 | Cc1ccc(CCN2CC(C(=O)N3CCC4(CC3)OCCO4)CC2=O)cc1 (stereo unspecified) | inactive: > 76.9 µM
20 | CCC(C(=O)N1CCC2(CC1)OCCO2)c1ccccc1 (stereo unspecified) | inactive: > 76.9 µM
21 | CC(=O)Nc1ccccc1OP1(=O)COc2ccccc2OC1 | inactive: > 76.9 µM
22 | CN(CC1COc2ccccc2O1)c1nc(-c2cccnc2)nc2ccccc12 (stereo unspecified) | inactive: > 76.9 µM
23 | O=C(CCCOc1ccc(Cl)cc1Cl)N1CCC2(CC1)OCCO2 | inactive: > 76.9 µM
24 | CN1C(=O)N(C)C(=O)C2(Cc3ccccc3N3CCOCC32)C1=O (stereo unspecified) | inactive: > 76.9 µM

Row | SMILES | Potency
25 | Cc1ccccc1NC1=NCCCS1 | inactive: > 76.9 µM
26 | Cc1ccc2c(c1)C1CN(C)CCC1N2C(=O)COc1ccc(S(=O)(=O)N2CCOCC2)cc1 (stereo unspecified) | inactive: > 76.9 µM
27 | Cc1cc(Cl)ccc1OCC(=O)O | inactive: > 76.9 µM
28 | COC(=O)c1cc(C(O)(C(=O)OC)C(F)(F)F)c(/N=C/N(C)C)s1 (stereo unspecified) | inactive: > 76.9 µM
29 | CCC(=Nc1ccc(OC)cc1OC)c1c(O)[nH]c(=O)[nH]c1=O | inactive: > 76.9 µM
30 | O=C(Cn1ncc2c3ccccc3n(Cc3ccc(F)cc3)c2c1=O)N1CCC2(CC1)OCCO2 | inactive: > 76.9 µM
31 | CCN(CC)CCCN=Cc1c(O)n(CCc2ccc(OC)c(OC)c2)c(=O)[nH]c1=O | inactive: > 76.9 µM
32 | O=C(O)c1nonc1-c1nonc1C(=O)O | inactive: > 76.9 µM
33 | CCC(=NCc1ccco1)c1c(O)[nH]c(=O)[nH]c1=O | inactive: > 76.9 µM
34 | CCCCn1c(O)c(C=NC2CCCCC2N)c(=O)[nH]c1=O (stereo unspecified) | inactive: > 76.9 µM
35 | O=C(NCc1ccccn1)c1ccccc1Cl | inactive: > 76.9 µM
36 | O=C(NCC(c1cccnc1)N1CCN(c2ccc(F)cc2)CC1)Oc1ccccc1 (stereo unspecified) | inactive: > 76.9 µM
37 | Cc1ccc(-c2nc3ccccc3c(=O)n2-n2cccc2)cc1 | inactive: > 76.9 µM
38 | CCN1CCN(c2nc3c(c(=O)[nH]2)CCCC3)CC1 | inactive: > 76.9 µM
39 | N#Cc1c(/N=C/c2c(O)n(Cc3ccco3)c(=O)[nH]c2=O)sc2c1CCCC2 | inactive: > 76.9 µM
40 | O=C(Nc1ccc(OC(=O)N2CCCC2)cc1)N1CCOCC1 | inactive: > 76.9 µM
41 | CN1C(=O)N(C)C(=O)C(CCc2ccccn2)(CCc2ccccn2)C1=O | inactive: > 76.9 µM
42 | CC(=NCc1ccc2c(c1)OCO2)c1c(O)[nH]c(=O)[nH]c1=O | inactive: > 76.9 µM
43 | O=c1[nH]c(=O)n(C2CCCCC2)c(O)c1C1NCCc2ccccc21 (stereo unspecified) | inactive: > 76.9 µM
44 | COc1cccc(CNC2CN3CCC2CC3)c1OC (stereo unspecified) | inactive: > 76.9 µM
45 | CCOc1cc(C(=O)N2CCC3(CC2)OCCO3)cc(OCC)c1OCC | inactive: > 76.9 µM
46 | O=C1CC(C(=O)N2CCC3(CC2)OCCO3)CN1CCc1ccccc1 (stereo unspecified) | inactive: > 76.9 µM
47 | C=CCn1c(O)c(C(=O)CCCCCC)c(=O)[nH]c1=O | inactive: > 76.9 µM
48 | C1CNC2NCCNC2N1 (stereo unspecified) | inactive: > 76.9 µM

Row | SMILES | Potency
49 | Cc1[nH]c2ccccc2c1/C=N/O | inactive: > 76.9 µM
50 | CCC(=NCc1ccc(F)cc1)c1c(O)n(C)c(=O)n(C)c1=O | inactive: > 76.9 µM
51 | CN(C)CP(=O)(Nc1ccccc1)N(C)C (stereo unspecified) | inactive: > 76.9 µM
52 | Cc1cc(OCC(=O)Nc2c(C)n(C)n(-c3ccccc3)c2=O)c2c3c(c(=O)oc2c1)CCC3 | inactive: > 76.9 µM
53 | O=c1[nH]c(=O)n(C2CCCCCC2)c(O)c1C=NCCCN1CCOCC1 | inactive
54 | CC(C)n1nnnc1CN1CCN(C)CC1 | inactive: > 76.9 µM
55 | CCOCC(=O)NC1CCSC1=O (stereo unspecified) | inactive: > 76.9 µM
56 | O=C(Cc1ccccc1)OCCN1CCCCC1 | inactive: > 76.9 µM
57 | Cc1n[nH]c(C)c1CCN | inactive: > 76.9 µM
58 | Cc1ccc(S(=O)(=O)N(C)CCCC(=O)N2CCN(c3ccccn3)CC2)cc1 | inactive: > 76.9 µM
59 | O=C(NC1CC1)C1CSC(c2cccnc2)=N1 (stereo unspecified) | inactive: > 76.9 µM
60 | Cc1ccc(C(=O)C2CN3CCC2CC3)cc1 (stereo unspecified) | inactive: > 76.9 µM
61 | CCOC(=O)N1CCN(C(C)C(=O)c2c[nH]c3ccccc23)CC1 (stereo unspecified) | inactive: > 76.9 µM
62 | CNP(=S)(NC)OCCOc1ccc(OC)cc1 | inactive: > 76.9 µM
63 | COc1cc(C2NCc3ccccc3-n3cccc32)ccc1O (stereo unspecified) | inactive: > 76.9 µM
64 | CC1CC2(O)c3no[n+]([O-])c3CCC2N1O (stereo unspecified) | inactive: > 76.9 µM
65 | Cn1cc(CCC(=O)N2CCC3(CC2)OCCO3)c2ccccc21 | inactive: > 76.9 µM
66 | OCCNc1c2c(nc3ccccc13)CCCC2 | inactive: > 76.9 µM
67 | COc1ccc(OC)c(C2=NOC(C(=O)N3CCC4(CC3)OCCO4)C2)c1 (stereo unspecified) | inactive: > 76.9 µM
68 | COc1ccc(C(=O)C(Cc2ccccc2)N(C)C)cc1 (stereo unspecified) | inactive
69 | Cc1ccc2nsnc2c1-n1c(C)nc2ccccc2c1=O | inactive: > 76.9 µM
70 | CCCc1[nH]nc2c1C1(C(=O)N(CC(N)=O)c3ccccc31)C(C(=O)OC)=C(N)O2 (stereo unspecified) | inactive: > 76.9 µM
71 | C1=C(c2c[nH]c3ccccc23)CCNC1 | inactive: > 76.9 µM
72 | C=CCN1C(=O)C2(C(C(=O)OCC)=C(N)Oc3ccccc32)C2=C1CCCC2=O (stereo unspecified) | inactive: > 76.9 µM

Row | SMILES | Potency
73 | Cc1nc2ccccc2c(=O)n1-n1cnnc1 | inactive: > 76.9 µM
74 | CCOC(=O)C(O)(c1ccc(N(CC)C(=O)OC)cc1)C(F)(F)F (stereo unspecified) | inactive: > 76.9 µM
75 | Oc1cc2c(cc1CN1CCN(c3ccccc3)CC1)CCC2 | inactive: > 76.9 µM
76 | CC1(C)CN=C(Nc2nc3ccccc3s2)S1 | inactive: > 76.9 µM
77 | O=C(C1CCC(=O)N1Cc1ccc(F)cc1)N1CCC2(CC1)OCCO2 (stereo unspecified) | inactive: > 76.9 µM
78 | CN1C(=O)N(C)C(=O)C2(Sc3ccccc3C2=O)C1=O | inactive: > 76.9 µM
79 | O=C(c1cc2c(s1)CCCCCC2)N1CCC2(CC1)OCCO2 | inactive: > 76.9 µM
80 | CCC1(CC)C(=O)NC(=NCCc2c[nH]c3ccccc23)NC1=O | inactive: > 76.9 µM
81 | O=C1OCCC1NC1=NCCC1 (stereo unspecified) | inactive: > 76.9 µM
82 | Cc1cc(OCc2nn[nH]n2)c2c3c(c(=O)oc2c1)CCC3 | inactive: > 76.9 µM
83 | CC1(O)C[C@]2(C)N(O)C3CCCC[C@@H]3N2O1 (stereo partly specified) | inactive: > 76.9 µM
84 | CC(C)C(=O)c1cn(Cc2ccccc2C#N)c2ccccc12 | inactive: > 76.9 µM
85 | CCCCn1c(NC(=O)c2ccco2)c(C(=O)OCC)c2nc3ccccc3nc21 | inactive: > 76.9 µM
86 | CCCCc1nc2ccccc2c(=O)n1-c1ccc(O)cc1 | inactive: > 76.9 µM
87 | CCOC(=O)CN1C(=O)C2(C(C#N)=C(N)Oc3ccccc32)C(C(=O)OC)=C1C (stereo unspecified) | inactive: > 76.9 µM
88 | O=c1[nH]c(=O)n(CCC2=CCCCC2)c(O)c1C=NCCCn1ccnc1 | inactive: > 76.9 µM
89 | Cc1cccc(N2CCc3c2nc2ccccc2c3N)c1 | inactive: > 76.9 µM
90 | O=C(Cn1cnc2ccccc2c1=O)NCC(=O)N1CCC2(CC1)OCCO2 | inactive: > 76.9 µM
91 | CC(=O)Nc1ccccc1OC(=O)N(C)C | inactive: > 76.9 µM
92 | Cc1ccc(C2CC(=O)C(C=NCCN3CCN(C(=O)Cc4ccccc4)CC3)=C(O)C2)cc1 (stereo unspecified) | inactive: > 76.9 µM
93 | Cc1cccnc1NC1=NCC(C)S1 (stereo unspecified) | inactive: > 76.9 µM
94 | CN1CCC(N2CC3CC(C2)c2cccc(=O)n2C3)CC1 (stereo unspecified) | inactive: > 76.9 µM
95 | O=C(COc1ccccc1)N1CCN(CC2CC3C=CC2C3)CC1 (stereo unspecified) | inactive: > 76.9 µM
96 | CN1CCC(n2nccc2N)CC1 | inactive: > 76.9 µM
